From the supplement of paper PMC12217912
The list shows a part of the results. Sequences were assembled here from the parent chain. Values near 0.05 are background.

B1: TEV protease; numbered along this chain (parent)
chain: MGESLFKGPRDYNPISSSICHLTNESDGHTTSLYGIGFGPFIITNKHLFRRNNGTLVVQSLHGVFKVKDTTTLQQHLVDGRDMIIIRMPKDFPPFPQKLKFREPQREERICLVTTNFQTKSMSSMVSDTSCTFPSGDGIFWKHWIQTKDGQCGSPLVSTRDGFIVGIHSASNFTNTNNYFTSVPKNFMELLTNQEAQQWVSGWRLNADSVLWGGHKVFMVKPEEPFQPVKEATQL

Variants of: B1
Assay: raw area under fraction-flipped curve 0-4 h after induction (AUC4h, not background-subtracted), DNA-recorder readout of cleavage of the substrate (dimensionless); higher = more cleavage of the substrate by the protease variant
Conditions: temperature: 34 °C; time window: 0-4 h after rhamnose induction
Protocol: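 In vivo DNA recorder in E. coli TOP10(DE3) ΔrhaA at 34 °C. Each TEVp single-site mutant (parent TEVp 0) is paired with a single-site variant of the 7-mer TEVs (canonical ENLYFQ|S). The substrate sits between flexible linkers in a Bxb1-sfGFP-TEVs-SsrA fusion, so cleavage stabilises Bxb1 and speeds flipping of a recombination array, read by NGS. The value is the raw area under the fraction-flipped curve over 0-4 h after rhamnose induction (AUC4h), with ≥20 reads per time point. It is not background-subtracted; inactive controls average about 0.047.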
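Note: Bxb1 expression induced with 0.2% (w/v) L-rhamnose at OD600 near 0.5, cultures sampled hourly, flipped fraction per protease–substrate barcode pair counted by paired-end Illumina sequencing.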

Row | Variant | area with substrate ENAYFQS | area with substrate ENCYFQS | area with substrate ENEYFQS | area with substrate ENGYFQS | area with substrate ENHYFQS | area with substrate ENMYFQS | area with substrate ENQYFQS | area with substrate ENRYFQS | area with substrate ENSYFQS | area with substrate ENVYFQS | area with substrate ENWYFQS | area with substrate ENDYFQS | area with substrate ENFYFQS | area with substrate ENIYFQS | area with substrate ENKYFQS | area with substrate ENNYFQS | area with substrate ENPYFQS | area with substrate ENTYFQS | area with substrate ENYYFQS
1 | MGESLFKGPRDYNPISSSICHLTNESDGHTTSLYGIGFGPFIITNKHLFRRNNGTIVVQSLHGVFKVKDTTTLQQHLVDGRDMIIIRMPKDFPPFPQKLKFREPQREERICLVTTNFQTKSMSSMVSDTSCTFPSGDGIFWKHWIQTKDGQCGSPLVSTRDGFIVGIHSASNFTNTNNYFTSVPKNFMELLTNQEAQQWVSGWRLNADSVLWGGHKVFMVKPEEPFQPVKEATQL [L56I] | 0.0521 | 0.0381 | 0.0403 | 0.0629 | 0.0731 | 0.0884 | 0.0604 | 0.0585 | 0.0571 | 0.101 | 0.0443 | – | – | – | – | – | – | – | –
2 | MGESLFKGPRDYNPISSSICHLTNESDGHTTSLYGIGFGPFIITNKHLFRRNNGTCVVQSLHGVFKVKDTTTLQQHLVDGRDMIIIRMPKDFPPFPQKLKFREPQREERICLVTTNFQTKSMSSMVSDTSCTFPSGDGIFWKHWIQTKDGQCGSPLVSTRDGFIVGIHSASNFTNTNNYFTSVPKNFMELLTNQEAQQWVSGWRLNADSVLWGGHKVFMVKPEEPFQPVKEATQL [L56C] | 0.0606 | – | – | 0.0684 | 0.0561 | – | 0.0546 | 0.0475 | 0.067 | 0.0613 | 0.0089 | 0.0685 | 0.0602 | 0.103 | 0.0536 | 0.0473 | 0.0596 | 0.0553 | –
3 | MGESLFKGPRDYNPISSSICHLTNESDGHTTSLYGIGFGPFIITNKHLFRRNNGTMVVQSLHGVFKVKDTTTLQQHLVDGRDMIIIRMPKDFPPFPQKLKFREPQREERICLVTTNFQTKSMSSMVSDTSCTFPSGDGIFWKHWIQTKDGQCGSPLVSTRDGFIVGIHSASNFTNTNNYFTSVPKNFMELLTNQEAQQWVSGWRLNADSVLWGGHKVFMVKPEEPFQPVKEATQL [L56M] | 0.0529 | 0.0598 | 0.0742 | 0.0762 | 0.0492 | 0.0747 | 0.0586 | – | – | – | – | 0.057 | 0.0672 | 0.114 | – | 0.0717 | – | 0.0497 | 0.048
4 | MGESLFKGPRDYNPISSSICHLTNESDGHTTSLYGIGFGPFIITNKHLFRRNNGTWVVQSLHGVFKVKDTTTLQQHLVDGRDMIIIRMPKDFPPFPQKLKFREPQREERICLVTTNFQTKSMSSMVSDTSCTFPSGDGIFWKHWIQTKDGQCGSPLVSTRDGFIVGIHSASNFTNTNNYFTSVPKNFMELLTNQEAQQWVSGWRLNADSVLWGGHKVFMVKPEEPFQPVKEATQL [L56W] | 0.0573 | 0.051 | 0.0593 | 0.052 | 0.0523 | 0.0574 | 0.062 | 0.0651 | 0.0432 | 0.0605 | – | 0.0613 | 0.0626 | 0.0559 | 0.0595 | 0.0561 | 0.0542 | 0.0616 | 0.0526
5 | MGESLFKGPRDYNPISSSICHLTNESDGHTTSLYGIGFGPFIITNKHLFRRNNGTQVVQSLHGVFKVKDTTTLQQHLVDGRDMIIIRMPKDFPPFPQKLKFREPQREERICLVTTNFQTKSMSSMVSDTSCTFPSGDGIFWKHWIQTKDGQCGSPLVSTRDGFIVGIHSASNFTNTNNYFTSVPKNFMELLTNQEAQQWVSGWRLNADSVLWGGHKVFMVKPEEPFQPVKEATQL [L56Q] | 0.0351 | 0.0498 | 0.0495 | 0.0597 | 0.0472 | – | 0.0416 | – | 0.0274 | 0.0379 | – | 0.0257 | – | – | – | 0.0095 | 0.0453 | 0.0538 | 0.0566
6 | MGESLFKGPRDYNPISSSICHLTNESDGHTTSLYGIGFGPFIITNKHLFRRNNGTPVVQSLHGVFKVKDTTTLQQHLVDGRDMIIIRMPKDFPPFPQKLKFREPQREERICLVTTNFQTKSMSSMVSDTSCTFPSGDGIFWKHWIQTKDGQCGSPLVSTRDGFIVGIHSASNFTNTNNYFTSVPKNFMELLTNQEAQQWVSGWRLNADSVLWGGHKVFMVKPEEPFQPVKEATQL [L56P] | 0.0564 | 0.0493 | 0.0468 | 0.0677 | 0.0503 | 0.0344 | 0.0386 | – | 0.0453 | – | – | 0.0495 | – | 0.056 | 0.0404 | 0.0405 | 0.0339 | 0.0372 | –
7 | MGESLFKGPRDYNPISSSICHLTNESDGHTTSLYGIGFGPFIITNKHLFRRNNGTSVVQSLHGVFKVKDTTTLQQHLVDGRDMIIIRMPKDFPPFPQKLKFREPQREERICLVTTNFQTKSMSSMVSDTSCTFPSGDGIFWKHWIQTKDGQCGSPLVSTRDGFIVGIHSASNFTNTNNYFTSVPKNFMELLTNQEAQQWVSGWRLNADSVLWGGHKVFMVKPEEPFQPVKEATQL [L56S] | 0.0378 | – | 0.0508 | – | 0.0538 | – | 0.0554 | 0.0702 | 0.0453 | 0.0634 | – | 0.0444 | – | 0.053 | 0.0527 | 0.051 | – | 0.0442 | 0.0456
8 | MGESLFKGPRDYNPISSSICHLTNESDGHTTSLYGIGFGPFIITNKHLFRRNNGTYVVQSLHGVFKVKDTTTLQQHLVDGRDMIIIRMPKDFPPFPQKLKFREPQREERICLVTTNFQTKSMSSMVSDTSCTFPSGDGIFWKHWIQTKDGQCGSPLVSTRDGFIVGIHSASNFTNTNNYFTSVPKNFMELLTNQEAQQWVSGWRLNADSVLWGGHKVFMVKPEEPFQPVKEATQL [L56Y] | 0.0586 | 0.0544 | 0.0781 | – | – | – | 0.038 | – | 0.0619 | 0.0433 | – | 0.0439 | – | – | 0.0574 | – | – | 0.0665 | 0.0446
9 | MGESLFKGPRDYNPISSSICHLTNESDGHTTSLYGIGFGPFIITNKHLFRRNNITLVVQSLHGVFKVKDTTTLQQHLVDGRDMIIIRMPKDFPPFPQKLKFREPQREERICLVTTNFQTKSMSSMVSDTSCTFPSGDGIFWKHWIQTKDGQCGSPLVSTRDGFIVGIHSASNFTNTNNYFTSVPKNFMELLTNQEAQQWVSGWRLNADSVLWGGHKVFMVKPEEPFQPVKEATQL [G54I] | 0.0511 | 0.0617 | 0.066 | – | – | 0.0608 | 0.0545 | 0.0611 | 0.0593 | 0.0512 | 0.0397 | 0.049 | 0.0479 | 0.0818 | 0.0515 | 0.0601 | – | 0.0718 | 0.0558
